Counter-ions that a name gives are not always drawn. The list shows a part of the results. Single values are uncertain, as repeats are few or missing.
test system: Ov4Carbo; assay: log2 surviving fraction (library drug vs vehicle, or drug + carboplatin vs carboplatin alone; relative to plate median); ovarian cancer lines: OVCAR4 is platinum-sensitive and Ov4Carbo platinum-resistant; higher = more cell survival; conditions: library drug concentration 10 µM; 7 days; carboplatin co-treatment 0 µM

Row | Structure (SMILES) | log2 surviving fraction
1 | CNC(=O)Oc1ccc2c(c1)[C@]1(C)CCN(C)[C@@H]1N2C [Physostigmine Hemisulfate Salt] | 0.225
2 | CCCC(CCC)C(=O)O[C@H]1C[C@H]2CC[C@@H](C1)[N+]2(C)C [Anisotropine Methylbromide] | 0.223
3 | CC(CN(C)C)CN1c2ccccc2CCc2ccccc21 (centres undefined) [Trimipramine Maleate] | -1.99
4 | Clc1ccc(CCC(Cn2ccnc2)Sc2c(Cl)cccc2Cl)cc1 (centres undefined) [Butoconazole nitrate] | -2.41
5 | Cl.N=C(N)NCCC[C@H](N)C(=O)O [L-Arginine HCl] | -0.579
6 | CN1CCN(c2cc3c(cc2F)c(=O)c(C(=O)O)cn3-c2ccc(F)cc2)CC1 [Difloxacin HCl] | -0.161
7 | Cn1c([N+](=O)[O-])cnc1COC(N)=O [Ronidazole] | -0.245
8 | O=c1ccn([C@@H]2O[C@H](CO)[C@@H](O)[C@H]2O)c(=O)[nH]1 [Uridine] | -0.216
9 | CC=CC1=C(C(=O)O)N2C(=O)[C@@H](NC(=O)[C@H](N)c3ccc(O)cc3)[C@H]2SC1 [Cefprozil hydrate (Cefzil)] | -0.167
10 | O=c1[nH]c(=O)n([C@H]2C[C@H](O)[C@@H](CO)O2)cc1I [Idoxuridine] | -1.81
11 | COc1cc(C)c(/C=C/C(C)=C/C=C/C(C)=C/C(=O)O)c(C)c1C [Acitretin] | -0.702
12 | Cc1c(N(C)C)c(=O)n(-c2ccccc2)n1C [Amidopyrine] | 0.349
13 | CN1CCc2cc3c(cc2C1O)OCO3 (centres undefined) [Hydrastinine HCl] | 0.487
14 | CCCCCCCCCCCCCCCCO [1-Hexadecanol] | -0.224

Reference: the supplement of paper PMC8047034
